# PubChem BioAssay (NCATS)
# Values joined by “and” are separate entries in the source; they are usually repeats but may differ in a detail not shown here. Equal values may be shown once. Inconclusive results, whose numbers are uncertain, are shown with a selection of clear calls. For some assays here: Potencies beside an inconclusive call are fits to weak or partial responses and may not hold up. Active and inactive are the calls of the source. Calls come from the whole dose curve; as a rule, active = well fitted curve in the direction sought with a large enough effect; inconclusive = small, poorly fitted or top-dose-only effect, or another doubt; inactive = no such curve, though single readings can be large; an effect the other way counts as inactive or inconclusive. Bridge positions count the residues as written; N and C are the ends. Square brackets hold non-standard residues; d marks the D form. Peptide text beside a SMILES is read from it. * marks the point of attachment. ξ: configuration not given here. Octanoyl(6-Me) = CCC(C)CCCCC(=O)*; ξThr(3R) = C[C@@H](O)C(N)C(=O)O; dDab = NCC[C@@H](N)C(=O)O; Dab = NCC[C@H](N)C(=O)O
# Tests used:
# [1] = qHTS of pediatric cancer cell lines to identify multiple opportunities for drug repurposing: Primary screen for TC32 cells (AID 1347089); settings: TC32 Ewing sarcoma viability, CellTiter-Glo luminescence, 48 h; series mostly up to 45.8 µM; note: nearly all actives have a fitted effect of over 60% in size; note: potency is the fitted concentration of half-maximal effect; for activity change, negative = cytotoxic: % is set by controls: 0 for no effect and ±100 for the full control effect
# Outline: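 Luminescent CellTiter-Glo read-out of metabolically active TC32 cells after 48 h compound exposure. Primary: MIPE 11-point, 0.78 nM–46 µM; NPC 8-point, 0.59 nM–46 µM. Confirmatory: 11-point dilutions.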
# [2] = qHTS of pediatric cancer cell lines to identify multiple opportunities for drug repurposing: Primary screen for DAOY cells (AID 1347090); settings: DAOY medulloblastoma viability, CellTiter-Glo luminescence, 48 h; activity change, negative = cytotoxic: at 46 µM (top of the series) unless noted; note: nearly all actives have a fitted effect of over 55% in size; note: potency is the fitted concentration of half-maximal effect;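 for activity change, negative = cytotoxic: plate controls were DMSO for no effect and bortezomib for full effect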
# Outline: (§1)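 Cell viability, CellTiter-Glo luminescence; 500-1,000 cells/well, 8- or 11-point titration, 48 h compound exposure at 37 degrees C, 5% CO2. Controls: DMSO neutral, bortezomib 2.3 µM final as positive.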
# [3] = qHTS of pediatric cancer cell lines to identify multiple opportunities for drug repurposing: Primary screen for A673 cells (AID 1347092); settings: A673 Ewing sarcoma viability, CellTiter-Glo ATP luminescence, 48 h; activity change, negative = cytotoxic: at 46 µM (top of the series); note: nearly all actives have a fitted effect of over 45% in size; note: potency is the fitted concentration of half-maximal effect; for activity change, negative = cytotoxic: % is set by controls: 0 for no effect and ±100 for the full control effect
# Outline: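 A673 cells (500-1,000 cells/well in growth media) were pre-incubated 5 h at 37 degrees C, then exposed to compounds for 48 h. Viability was read as CellTiter-Glo luminescence; concentration-response curves came directly from the primary screen.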
# [4] = qHTS of pediatric cancer cell lines to identify multiple opportunities for drug repurposing: Primary screen for SK-N-MC cells (AID 1347093); settings: SK-N-MC viability, CellTiter-Glo luminescence, 48 h; activity change, negative = cytotoxic: at 46 µM (top of the series); note: potency is the fitted concentration of half-maximal effect;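 for activity change, negative = cytotoxic: plate controls were DMSO neutral control for no effect and bortezomib for full effect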
# Outline: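 Metabolically active cells were quantified by ATP-dependent luminescence (CellTiter-Glo, 15 min at room temperature) following 48 h treatment. Cells had been plated at 500-1,000 per well and settled for 5 h beforehand.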
# [5] = qHTS of pediatric cancer cell lines to identify multiple opportunities for drug repurposing: Primary screen for BT-37 cells (AID 1347094); settings: BT-37 viability, CellTiter-Glo luminescence, 48 h; series mostly up to 57.3 µM; note: potency is the fitted concentration of half-maximal effect
# Outline: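 Primary screen of approved and investigational compounds on cells in growth media at 37 degrees C, 5% CO2. MIPE set at 11-point and NPC set at 8-point dilutions; viability scored by ATP-based luminescence at 48 hours.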
# [6] = qHTS of pediatric cancer cell lines to identify multiple opportunities for drug repurposing: Primary screen for SJ-GBM2 cells (AID 1347091); settings: SJ-GBM2 viability, CellTiter-Glo luminescence, 48 h; series mostly up to 46 µM; note: potency is the fitted concentration of half-maximal effect;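 for activity change, negative = cytotoxic: plate controls were DMSO neutral control for no effect and bortezomib for full effect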
# Outline: as §1
# [7] = target: Tyrosine-protein phosphatase non-receptor type substrate 1 (Homo sapiens) + Leukocyte surface antigen CD47 (Homo sapiens) (UniProt P78324+Q08722); assay: CD47-SIRPalpha protein protein interaction - Alpha assay qHTS validation (AID 1347059); settings: AlphaScreen CD47-His/biotin-SIRPalpha binding, LOPAC; series mostly up to 38.3 µM;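 note: bead proximity luminescence from CD47 binding SIRPalpha after compound preincubation with SIRPalpha; % is set by controls: 0 for no effect and ±100 for the full control effect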
# Outline: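 AlphaScreen signal between CD47-His (12.5 nM) and biotin-SIRPalpha (25 nM) soluble extracellular domains, bead-captured via Ni-NTA and streptavidin. Compounds, in 7-point titrations, met SIRPalpha 30 min before CD47; PBS pH 7.4 with 0.05% IGEPAL.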
# Tags give direction and shape of the fitted curve.
# Chain of UniProt P78324 (P78324 whole entry, looked up, the tested form may be a part): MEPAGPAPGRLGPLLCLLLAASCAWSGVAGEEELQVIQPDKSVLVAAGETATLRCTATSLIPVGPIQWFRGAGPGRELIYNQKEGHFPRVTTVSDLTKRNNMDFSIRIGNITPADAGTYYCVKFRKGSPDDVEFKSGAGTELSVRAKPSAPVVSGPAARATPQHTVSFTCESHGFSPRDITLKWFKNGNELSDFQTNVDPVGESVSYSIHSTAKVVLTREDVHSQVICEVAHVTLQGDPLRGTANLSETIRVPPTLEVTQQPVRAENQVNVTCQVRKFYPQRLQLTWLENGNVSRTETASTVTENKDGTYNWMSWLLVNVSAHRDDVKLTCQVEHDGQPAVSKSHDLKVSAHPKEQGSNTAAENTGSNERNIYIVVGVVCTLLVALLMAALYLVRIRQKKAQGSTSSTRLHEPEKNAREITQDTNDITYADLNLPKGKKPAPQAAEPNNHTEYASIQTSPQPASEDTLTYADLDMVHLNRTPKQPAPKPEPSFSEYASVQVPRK
# Chain of UniProt P78324 (Q08722 whole entry, looked up, the tested form may be a part): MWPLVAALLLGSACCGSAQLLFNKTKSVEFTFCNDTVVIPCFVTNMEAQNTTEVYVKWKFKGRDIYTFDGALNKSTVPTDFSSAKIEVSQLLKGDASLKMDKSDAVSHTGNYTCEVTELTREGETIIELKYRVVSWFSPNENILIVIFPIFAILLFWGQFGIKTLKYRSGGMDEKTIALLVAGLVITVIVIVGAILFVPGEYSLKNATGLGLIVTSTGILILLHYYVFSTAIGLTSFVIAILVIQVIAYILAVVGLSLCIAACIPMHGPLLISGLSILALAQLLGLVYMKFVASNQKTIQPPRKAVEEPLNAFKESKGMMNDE
smiles,measurement,setting,value
CCCCC(C=O)NC(=O)C(CC(C)C)NC(=O)OCc1ccccc1 (centres undefined),Potency,[1],"inconclusive: 29.4 µM [cytotoxic, partial curve, poor fit]"
same,Potency,[2],"inconclusive: 11.8 µM [cytotoxic, partial curve]"
same,Potency,[3],"inconclusive: 18.7 µM [cytotoxic, partial curve]"
same,Potency,[4],"inconclusive: 37.2 µM [cytotoxic, single point]"
same,Potency,[5],"inconclusive: 2.43 µM [cytotoxic, partial curve, poor fit]"
Cc1ccn(-c2ccc(-c3ncco3)cc2)c(=O)c1-c1ccc2nc(N)ncc2c1,Potency,[1],"inconclusive: 16.5 µM [cytotoxic, partial curve, poor fit]"
same,Potency,[2],"inconclusive: 9.35 µM [cytotoxic, partial curve]"
same,Potency,[6],"inconclusive: 1.66 µM [cytotoxic, full curve]"
same,Potency,[3],"inconclusive: 14.8 µM [cytotoxic, partial curve]"
same,Potency,[4],active: 3.32 µM
same,Potency,[5],"inconclusive: 6.85 µM [cytotoxic, partial curve]"
CCOC(=O)C1=C(O)C(=O)N(Cc2ccccc2)C1,Potency,[7],inactive
same,Potency,[3],"inconclusive: 29.6 µM [cytotoxic, partial curve, poor fit]"
same,Potency,[5],"inconclusive: 21.7 µM [cytotoxic, partial curve, poor fit]"
O=c1[nH]c(=O)n([C@H]2C[C@@H](O)[C@@H](CO)O2)cc1I,Potency,[1],"inconclusive: 13.1 µM [cytotoxic, partial curve, poor fit]"
NC[C@@H]1O[C@@H](O[C@H]2[C@@H](O)[C@H](O[C@@H]3[C@@H](O)[C@@H](N)C[C@H](N)[C@H]3O[C@H]3O[C@H](CN)[C@@H](O)[C@@H](O)[C@H]3N)O[C@H]2CO)[C@H](N)[C@@H](O)[C@@H]1O,Potency,[1],inactive
COCCOC(=O)C1=C(C)NC2=C(C(=O)CC(c3ccccc3OC)C2)C1c1cccc(O)c1 (centres undefined),Potency,[1],"inconclusive: 13.1 µM [cytotoxic, partial curve, poor fit]"
same,Potency,[2],"inconclusive: 23.5 µM [cytotoxic, partial curve]"
same,Potency,[6],"inconclusive: 37.2 µM [cytotoxic, single point]"
same,Potency,[5],"inconclusive: 21.7 µM [cytotoxic, partial curve]"
CCCCCCCCCCCC1=C(O)C(=O)C=C(O)C1=O,Potency,[1],inactive
same,Potency,[2],active: 0.935 µM
same,"activity change, negative = cytotoxic",[3],inconclusive: -88.2%
same,Potency,[5],active: 0.0243 µM
CN(C)C(=O)C(CCN1CCC(O)(c2ccc(Cl)cc2)CC1)(c1ccccc1)c1ccccc1,Potency,[1],"inconclusive: 26.2 µM [cytotoxic, single point] and inconclusive: 29.7 µM [cytotoxic, single point]"
same,Potency,[2],"inconclusive: 23.5 µM [cytotoxic, single point] and inconclusive: 26.6 µM [cytotoxic, single point]"
same,Potency,[6],"inconclusive: 23.5 µM [cytotoxic, partial curve] and inconclusive: 29.9 µM [cytotoxic, single point]"
same,Potency,[4],"active: 18.7 µM and inconclusive: 23.7 µM [cytotoxic, partial curve, poor fit]"
same,Potency,[5],"inconclusive: 27.6 µM [cytotoxic, single point]"
NCCCCCC(=O)O,Potency,[1],inactive
same,Potency,[2],inactive
Cc1ccc(C(C)(O)c2nc3ccccc3s2)c(C)c1 (centres undefined),Potency,[1],inactive
same,Potency,[2],"inconclusive: 14.8 µM [cytotoxic, partial curve, poor fit]"
same,Potency,[5],active: 3.85 µM
CO[C@@H](C(=O)N1Cc2[nH]nc(NC(=O)c3ccc(N4CCN(C)CC4)cc3)c2C1)c1ccccc1,Potency,[1],"inconclusive: 0.262 µM [cytotoxic, full curve]"
same,Potency,[2],"inconclusive: 11.8 µM [cytotoxic, partial curve]"
same,Potency,[6],active: 0.187 µM
same,Potency,[4],active: 0.118 µM
same,Potency,[5],"inconclusive: 0.193 µM [cytotoxic, full curve]"
O=C(Nc1cc(Cl)cc2c1[nH]c1cnccc12)c1cccnc1,Potency,[1],inactive
same,Potency,[2],"inconclusive: 4.69 µM [cytotoxic, partial curve]"
same,Potency,[6],"inconclusive: 5.26 µM [cytotoxic, partial curve]"
same,Potency,[5],"inconclusive: 7.69 µM [cytotoxic, partial curve]"
Cc1c(C)n(Cc2ccc(-c3ccccc3C(=O)O)cc2)c2ccc(C(=O)N[C@@H](C)c3ccc([N+](=O)[O-])cc3)cc12,Potency,[1],inactive
same,Potency,[2],active: 0.0296 µM
same,Potency,[6],active: 23.5 µM
same,Potency,[5],active: 0.968 µM
NC(=O)c1ccc(I)c([N+](=O)[O-])c1,Potency,[1],inactive
CC(=O)OCC(CCn1cnc2cnc(N)nc21)COC(C)=O,Potency,[7],inactive
same,Potency,[4],inactive
CCC(C)CCCCC(=O)N[C@@H](CCN)C(=O)NC(C(=O)N[C@H](CCN)C(=O)N[C@@H]1CCNC(=O)C([C@@H](C)O)NC(=O)[C@@H](CCN)NC(=O)[C@@H](CCN)NC(=O)[C@@H](CC(C)C)NC(=O)[C@H](Cc2ccccc2)NC(=O)[C@H](CCN)NC1=O)[C@@H](C)O (stereo partly drawn) ({Octanoyl(6-Me)}-[Dab][ξThr(3R)][dDab][dDab][Dab]F[dL][dDab][dDab][ξThr(3R)]; lactam 4-C),Potency,[1],inactive
same,Potency,[2],inactive
same,Potency,[6],"inconclusive: 11.8 µM [cytotoxic, single point]"
Cc1ccc(-n2[nH]c(C)c(N=Nc3cccc(-c4cccc(C(=O)O)c4)c3O)c2=O)cc1C,Potency,[1],"inconclusive: 29.7 µM [cytotoxic, single point]"
same,Potency,[2],active: 18.7 µM
same,Potency,[6],"inconclusive: 8.33 µM [cytotoxic, full curve]"
COc1cccc([C@@H](C)NCCCc2ccccc2Cl)c1,Potency,[2],"inconclusive: 37.2 µM [cytotoxic, single point]"
same,Potency,[6],"inconclusive: 37.2 µM [cytotoxic, single point]"
C[C@]12CC[C@H](O)CC1=CC[C@@H]1[C@H]2CC[C@]2(C)C(c3cccnc3)=CC[C@H]12,Potency,[2],inactive
same,Potency,[6],"inconclusive: 7.24 µM [cytotoxic, partial curve]"
CC1(C)[C@H](O[C@H]2O[C@H](C(=O)O)[C@@H](O)[C@H](O)[C@H]2O[C@@H]2O[C@H](C(=O)O)[C@@H](O)[C@H](O)[C@H]2O)CC[C@@]2(C)[C@H]1CC[C@]1(C)[C@H]2C(=O)C=C2[C@H]3C[C@@](C)(C(=O)O)CC[C@]3(C)CC[C@]21C,Potency,[1],inactive
same,Potency,[6],inactive
C[C@@H](NCCCc1cccc(C(F)(F)F)c1)c1cccc2ccccc12,Potency,[1],"inconclusive: 234 nM [cytotoxic, partial curve] and inconclusive: 26.4 µM [cytotoxic, single point]"
same,Potency,[6],"inconclusive: 26.6 µM [cytotoxic, single point]"
same,Potency,[4],"inconclusive: 4.18 µM [cytotoxic, partial curve, poor fit] and inconclusive: 23.7 µM [cytotoxic, single point]"
Cc1ncc([N+](=O)[O-])n1CCO,Potency,[2],inactive
O=C(NC1CCOCC1)c1ccc(-c2cc(-c3cn[nH]c3-c3ccccn3)ccn2)cc1,Potency,[2],inactive
COc1ccccc1N1CCN(CCN(C(=O)C2CCCCC2)c2ccccn2)CC1,Potency,[2],"inconclusive: 18.7 µM [cytotoxic, partial curve, poor fit]"
CC(C)(C)c1cc(C(=O)O)c(NC(=O)Nc2ccc3[nH]ncc3c2)s1,Potency,[2],"inconclusive: 18.7 µM [cytotoxic, partial curve]"
CC1(C)S[C@H]2[C@H](NC(=O)[C@@H](N)c3ccc(O)cc3)C(=O)N2[C@@H]1C(=O)O,Potency,[1],"inconclusive: 16.5 µM [cytotoxic, partial curve]"
same,Potency,[5],active: 6.85 µM
O=C(C=Cc1cccnc1)NCCCCC1CCN(C(=O)c2ccccc2)CC1,Potency,[1],active: 0.0047 µM
same,Potency,[4],"inconclusive: 0.0037 µM [cytotoxic, full curve, poor fit]"
same,Potency,[5],"inconclusive: 0.0193 µM [cytotoxic, full curve, poor fit]"
COc1cc(F)c(F)c(Nc2ccc(I)cc2F)c1NS(=O)(=O)C1(C[C@H](O)CO)CC1,Potency,[2],"inconclusive: 14.8 µM [cytotoxic, partial curve, poor fit]"
same,Potency,[6],"inconclusive: 16.6 µM [cytotoxic, partial curve, poor fit]"
same,Potency,[3],"inconclusive: 14.8 µM [cytotoxic, partial curve]"
CN1CCN(Cc2ccc(NC(=O)Nc3ccc(Oc4cc(NC(=O)C5CC5)ncn4)cc3)cc2C(F)(F)F)CC1,Potency,[1],active: 0.294 µM
same,Potency,[5],active: 0.544 µM
Cc1nnc(C(C)C)n1C1C[C@H]2CC[C@@H](C1)N2CC[C@H](NC(=O)C1CCC(F)(F)CC1)c1ccccc1 (some centres undefined),Potency,[2],"inconclusive: 37.2 µM [cytotoxic, single point]"
C[C@@H](CN1CC(=O)NC(=O)C1)N1CC(=O)NC(=O)C1,Potency,[1],"inconclusive: 37 µM [cytotoxic, partial curve, poor fit]"
same,Potency,[5],"inconclusive: 15.5 µM [cytotoxic, partial curve, poor fit]"
Cc1cn2c(-c3cn[nH]c3)cnc2c(Nc2ccc(C(=O)N3CCNCC3)cc2F)n1,Potency,[1],"inconclusive: 4.66 µM [cytotoxic, partial curve, poor fit]"
same,Potency,[6],"inconclusive: 20.9 µM [cytotoxic, partial curve]"
same,Potency,[5],active: 17.2 µM
Cc1nc(Nc2n[nH]c3c2CN(C(=O)N[C@H](CN(C)C)c2ccccc2)C3(C)C)c2sccc2n1,Potency,[1],active: 0.739 µM
same,Potency,[6],active: 1.05 µM
O=c1[nH]cnc2c1ncn2[C@H]1CC[C@@H](CO)O1,Potency,[2],inactive
same,Potency,[6],"inconclusive: 29.6 µM [cytotoxic, single point]"
